# Patent US20110160055A1, “Imidazole and Triazole Compounds as Fungicides” (BASF SE, priority 2008, published 2011)
# Test system: Pyricularia oryzae
# Format: cell-based
# Conditions: 31 ppm, absorption at 405 nm on day 7, control = 100%
structure (smiles),measurement,value
CC(COc1cccc(Cl)c1)=C(C)CC(C(O)C(C)(C)C)n1cncn1 (stereo not shown) [I.A4a],relative growth in % of the pathogen,9%
